System: human endothelial cells of the lungs
Assay: Toxin-induced hyperpermeability, transendothelial electric resistance (ECIS), endothelial cells
Format: cell-based
Details: 125 ng/ml of pneumolysin, 50 μg/ml of peptide

## C[C@@H]1NC(=O)CNC(=O)[C@H](CCC(=O)O)NC(=O)[C@@H]2CCCN2C(=O)[C@H]([C@@H](C)O)NC(=O)[C@H](CCC(=O)O)NC(=O)[C@H](CCCNC(=N)N)NC(=O)[C@H](CCC(N)=O)NC(=O)CNC(=O)[C@@H](N)CSSC[C@@H](C(=O)O)NC(=O)[C@H](Cc2ccc(O)cc2)NC(=O)[C@H](Cc2c[nH]c3ccccc23)NC(=O)[C@@H]2CCCN2C(=O)[C@H](CCCCN)NC(=O)[C@H](C)NC(=O)[C@H](CCC(=O)O)NC1=O [peptide SEQ ID No. 1, CGQRETPEGAEAKPWYC]
  hyperpermeability caused by the toxin pneumolysin (electric resistance): inhibited

Source: patent US11639368B2, “Method for preventing and treating hyperpermeability” (Apeptico Forschung UND E[…], priority 2009, dated 2023)
